How the values were obtained:
AEKO cells = assay: Surface staining of AEKO tumor cells by flow cytometry; format: cell-based, human; conditions: […]-1 μM
Experimental: Surface binding was measured on an isogenic panel of EpCAM-knockout and EpCAM-overexpressing cell lines derived from A-431, a human epidermoid carcinoma cell line (FIG. 34). AEKO and AEPO are isogenic control cell lines in which there is zero EpCAM expression (AEKO) or high EpCAM expression (AEKO-E4). AEKO is a commercially available subclone of A-431 in which human EpCAM expression is “knocked out” (disrupted) by a frameshift mutation (catalog number ab261902; Abcam, Cambridge, UK). AEPO was developed using the AEKO cell line as a starting point and restoring expression of human EpCAM by transducing with a lentiviral vector containing human EpCAM downstream of an EF1α promoter. Cells were stained with Ab1070, a conventional TCE containing the M37-H6L2 variant of the M37 clone, at a range of concentrations from 0.015 nM-1 μM.
A single-cell suspension of adherent tumor cell lines was obtained by incubating 5 minutes with TrypLE Express (Gibco, Waltham, MA) and quenching with growth media (DMEM+10% FBS+1% penicillin/streptomycin), centrifuging at 400 rcf×5 minutes, aspirating the supernatant, and resuspending the cell pellet in CSM (AutoMACS Running Buffer, Miltenyi Biotec, Bergisch Gladbach, Germany). […]

cynomolgus macaque PBMCs = assay: Surface staining of cyno PBMCs by flow cytometry; format: cell-based; conditions: TCRab+, CD4+ and CD8+ subsets
Experimental: FIG. 32 depicts Ab1070 binding to human and cynomolgus macaque PBMCs. Binding was measured by flow cytometry using a secondary fluorescent antibody (IgG-PE). T-cell subsets were identified using additional fluorescent antibodies against TCRab, CD4 and CD8 and gated prior to quantifying the median fluorescence intensity (MFI) of the IgG-PE channel. […] The assay was performed with up to 10 μM antibodies (titrated as indicated).
Peripheral blood mononuclear cells (PBMCs) from healthy cynomolgus macaques (Chinese origin) were obtained commercially (iQ Biosciences, Berkeley, CA). Peripheral blood mononuclear cells (PBMCs) from healthy human donors were isolated from leukapheresis packs (leukopaks) from deidentified healthy adult donors (StemCell Technologies, Vancouver, BC). Human PBMCs were isolated using the EasySep Direct Human PBMC Kit (StemCell Technologies) then cryopreserved in DMEM with 10% FBS and 10% DMSO. Frozen PBMC cryovials were thawed on the day of experiments and washed complete growth media (DMEM+10% FBS+1% penicillin/streptomycin). Cells were resuspended in growth media and transferred to a 96-well U-bottom plate at 55,000 cell/well. Human TruStain FcX (Fc Receptor Blocking Solution; Catalog number 422302; BioLegend, San Diego, CA) was added at a 1:20 final dilution of the manufacturer's stock and incubated for 10 minutes at room temperature in a volume of 25 μL. […]

B1: Ab1070: conventional TCE containing the M37-H6L2 variant of the M37 clone (antibody)
heavy 1: EVQLVESGGGLVQPGGSLRLSCAASGFTFNTYAMNWVRQAPGKGLEWVARIRSKYNNYATYYADSVKGRFTISRDDSKSILYLQMNSLRAEDTAVYYCVRHGNFGNSYVSWFAYWGQGTLVTVSSGGGGSGGGGSGGGGSDIQVTQSPSSLSASVGDRVTITCRSSTGAVTTSNYANWVQQKPGKAFKGLIGGTNKLAPGVPSRFSGSLSGDDATLTISSLQPEDFATYYCALWYSNLWVFGQGTKLEIKGGGGS[human IgG1 Fc with changes left out]
heavy 2: EVQLVESGGGLVQPGGSLRLSCAASGFTFSNYWMNWVRQAPGKGLEWVAQIRVKSENFATHYADSVKGRFTISRDDSKSTVYLQMNSLRAEDTAVYYCTLYDGFSWGQGTLVTVSSASTKGPSVFPLAPSSKSTSGGTAALGCLVKDYFPEPVTVSWNSGALTSGVHTFPAVLQSSGLYSLSSVVTVPSSSLGTQTYICNVNHKPSNTKVDKKV[human IgG1 Fc with changes left out]
light: DIQMTQSPSSLSASVGDRVTITCSASSSVSSGNFHWYQQKPGKAPKLLIYRTSNLASGVPSRFSGSGSGTDYTLTISSLQPEDFATYYCQQWSGYPYTFGQGTKVEIKRTVAAPSVFIFPPSDEQLKSGTASVVCLLNNFYPREAKVQWKVDNALQSGNSQESVTEQDSKDSTYSLSSTLTLSKADYEKHKVYACEVTHQGLSSPVTKSFNRGEC
modifications: REGION 1..482: note = Ab1070 Knob HC; REGION 1..446: note = Ab1070 Hole HC; REGION 1..215: note = Ab1070 Hole LC
notes: conventional TCE containing the M37-H6L2 variant of the M37 clone
- surface binding to EpCAM-knockout AEKO cells (AEKO cells): but not the AEKO cells
- binding to cyno PBMC T-cell subsets (cynomolgus macaque PBMCs): dose-dependent
